Assay results from PubChem BioAssay AID1240 (Sanford-Burnham Center for Chemical Genomics, 2008).
Among all 50,000 compounds or so, about 800 (1.6%) showed an effect of 50% or more. This is one part of the list.

Each compound was assayed against Bcl-2-like protein 10 (Homo sapiens) (UniProt Q9HD36) (assay: Phenotype converters, Bcl-B/TR3 peptide binding displacement, primary biochemical FP (AID 1240;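 note: 0% = Bcl-B with tracer peptide and DMSO and 100% = tracer peptide lacking Bcl-B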)). Conditions: GST-Bcl-B / FITC-TR3 peptide fluorescence polarization; stronger effect = higher value; compound at 3.75 mg/L.
Chain of UniProt Q9HD36 (Q9HD36 whole entry, looked up): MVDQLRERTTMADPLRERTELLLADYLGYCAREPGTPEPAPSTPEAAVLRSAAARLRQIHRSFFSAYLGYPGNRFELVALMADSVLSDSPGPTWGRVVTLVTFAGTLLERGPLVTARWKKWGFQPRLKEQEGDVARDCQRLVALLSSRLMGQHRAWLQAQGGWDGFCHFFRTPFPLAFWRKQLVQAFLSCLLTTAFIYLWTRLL
Compound COc1ccc(OC)c(C2=C/C(=C\c3c(OC)ccc4ccccc34)C(=O)O2)c1 has a displacement of 15.9%.
CN(C)c1cccc(C(=O)NCCc2ccccc2)c1 showed a displacement of 11.9%.
O=S(=O)(Cc1ccc(Cl)cc1)CC(O)COc1ccc(Cl)cc1 (centres undefined) gave a displacement of -5.4%.
COc1ccc(/C=C/C(=O)Nc2c(C)ccc3nsnc23)cc1 was tested, and the displacement was 0.8%.
Compound Cc1c(NC(=O)CC2=CCCC2)c(=O)n(-c2ccccc2)n1C has a displacement of -5.8%.
Compound COc1ccc(N2C(=O)NC(=O)/C(=C\c3cc(OC)c(OC)cc3OC)C2=O)cc1 has a displacement of 3.3%.
O=C(NC(=S)Nc1ccc(F)cc1)c1ccccc1 was tested, and the displacement was -8.5%.
COC(=O)c1cc(NC(=O)c2ccc(C)c([N+](=O)[O-])c2)cc(C(=O)OC)c1 showed a displacement of 6%.
For COc1cccc(/C=N/NC(=O)C2CC(=O)N(c3ccc(C)cc3)C2)c1 (centres undefined), the displacement was -13.6%.
For CSc1ccc(S(=O)(=O)N(CC(=O)Nc2ccccc2Cl)c2ccc(C)cc2)cc1, the displacement was -12.8%.
Compound O=C1CC(c2cccc(Cl)c2)c2cc(Br)c3ccccc3c2N1 (centres undefined) has a displacement of -0.9%.
COc1ccccc1OCCNC(=O)c1ccccc1I showed a displacement of 12.9%.
With O=C(CCCOc1ccc(Cl)cc1Cl)n1cnc2ccccc21 the displacement was -5.4%.
For Cc1ccc(NC(=O)Cc2ccc(F)cc2)cc1, the displacement was 15%.
With COc1cccc(N2C(=O)c3ccc4c5c(ccc(c35)C2=O)C(=O)N(c2cccc(OC)c2)C4=O)c1 the displacement was 13.6%.
CN(C)CCNc1ncnc2ccc(Br)cc12 was tested, and the displacement was -1.9%.
In the case of Cc1cccc(N=C2NC(=O)/C(=C3/C(=O)N(C)c4ccccc43)S2)c1C, the displacement is reported as 13.8%.
Work on Cc1occc1C(=O)N/N=C/c1ccccc1 yielded a displacement of 4.2%.
For C=CCN(c1ccccc1C(=O)O)S(=O)(=O)c1ccc(NC(=O)OC)cc1, the displacement was -7%.
COC(=O)c1c(-c2ccc(Cl)cc2)csc1NC(=O)C1CCCCC1C(=O)O (centres undefined) was tested, and the displacement was 1.9%.
In the case of O=C(Nc1cccc(Cl)c1Cl)C1COc2ccccc2O1 (centres undefined), the displacement is reported as -2%.
For COc1ccc(-n2c(C=C3C(=O)N(C)c4ccccc43)nc3ccccc3c2=O)cc1, the displacement was -9.7%.
For Cc1ccc(NC(=O)C(=O)NCCN2CCN(S(C)(=O)=O)CC2)cc1, the displacement was 5.4%.
Work on COc1ccc(NC(=O)c2c(C)c(-c3ccc(C)cc3)nc3ccccc23)c(OC)c1 yielded a displacement of -2.9%.
In the case of S=c1[nH]nc(COc2ccccc2)n1C1CCCCC1, the displacement is reported as -6.5%.
In the case of Cc1nc(-c2ccccc2)nc2[nH]c(-c3ccccc3)cc(=O)c12, the displacement is reported as 69.8%.
Work on CC(C)(C)c1ccc(O)c(N=Cc2cc(Cl)cc([N+](=O)[O-])c2O)c1 yielded a displacement of -5.3%.
In the case of N#C/C(=C/c1cc([N+](=O)[O-])ccc1Cl)C(=O)Nc1cccc(Br)c1, the displacement is reported as -3.3%.
Work on COC(=O)C(NC(=O)c1ccc(Br)cc1)c1ccccc1 (centres undefined) yielded a displacement of -10.2%.
Compound CCOC(=O)C1=C(C)N=c2s/c(=C\c3ccccc3)c(=O)n2C1/C=C/c1ccccc1 (centres undefined) has a displacement of 9.1%.
With O=C(NC(=S)Nc1ccc(Cl)cc1Cl)c1cccs1 the displacement was 0.7%.
In the case of COc1c(Cl)cc(C(=O)Nc2ccc(Cl)cn2)cc1Cl, the displacement is reported as 9.3%.
With COC(=O)c1ccc(CSc2nc3sc4c(c3c(=O)n2-c2ccccc2)CCCC4)cc1 the displacement was -4.5%.
Cc1ccc(C(=O)Nc2cccc(Br)c2)cc1[N+](=O)[O-] was tested, and the displacement was 10.7%.
COC(=O)c1ccc(NC(=O)c2ccc3nccnc3c2)cc1 gave a displacement of 4.5%.
With O=C1CCC(=O)N1c1cccc(-c2nc3ccccc3o2)c1 the displacement was -9.6%.
Work on O=C1OC(c2ccc(Cl)cc2)=C/C1=C\c1ccc([N+](=O)[O-])cc1 yielded a displacement of -13.3%.
For O=C(Nc1ccc(Cl)c(Cl)c1)c1cnn2c1NC(c1ccc(Br)cc1)CC2C(F)(F)F (centres undefined), the displacement was 14.3%.
With COc1ccc(C(=O)NNC(=O)COc2ccc(C)cc2C)cc1 the displacement was -1%.
CCc1cccc(C)c1NC(=O)CSc1nc2ccccc2[nH]1 gave a displacement of 0.7%.
For CCCCCc1nc2sc3c(c2c(=O)n1N)CC(C)(C)OC3, the displacement was -1.5%.
Work on O=C1CC(N2CCC(Cc3ccccc3)CC2)C(=O)N1c1ccc(F)cc1 (centres undefined) yielded a displacement of 5.4%.
Compound Fc1ccc(CCNC2CCN(Cc3ccccc3)CC2)cc1 has a displacement of 10%.
Work on CCN(CC)CCN1C(=O)C(O)=C(C(=O)/C=C/c2ccccc2)C1c1cccc([N+](=O)[O-])c1 (centres undefined) yielded a displacement of -10%.
With O=C1C2C3CCC(O3)C2C(=O)N1c1cccc([N+](=O)[O-])c1 (centres undefined) the displacement was 17.9%.
Compound N#CCCN1c2ccccc2Sc2ccc(C(F)(F)F)cc21 has a displacement of 5%.
For COc1ccccc1/C=C(\NC(=O)c1ccccc1)C(=O)NCCc1c[nH]c2ccccc12, the displacement was -3.2%.
Work on Cc1ccc(-c2ccc(OCC(=O)Nc3cccc(C)c3)cc2)cc1 yielded a displacement of -4.4%.
For Clc1cc(Cl)c2c(c1)C=C1CCCCC1(N1CCCCC1)O2 (centres undefined), the displacement was 5.3%.
Compound CC(C)C(=O)Nc1nnc(Cc2cccc(Br)c2)s1 has a displacement of -8.3%.
Work on CSc1ccc(S(=O)(=O)N(CC(=O)Nc2ccc3ccccc3c2)c2ccc(C)cc2)cc1 yielded a displacement of -2.5%.
CCOC(=O)C1=C(c2ccccc2)N(C)C(=O)NC1c1ccc2c(c1)OCO2 (centres undefined) was tested, and the displacement was 3.6%.
Work on Cc1ccc(/C=C2\C(=O)NC(=O)N(c3cccc(Br)c3)C2=O)cc1 yielded a displacement of 6.3%.
With Cc1ccccc1NC(=O)c1ccc(C)c(S(=O)(=O)Nc2cccc([N+](=O)[O-])c2)c1 the displacement was -25.3%.
